Data taken from PubChem BioAssay (NCATS).
The inconclusive results got no clear call from the source; some entries with a clear call stand among them for comparison. For some of these results: Potencies beside an inconclusive call are fits to weak or partial responses and may not hold up. Activity calls are given as the source filed them. Unless noted, calls follow the shape of the dose curve; as a rule, active = well fitted curve in the direction sought with a large enough effect; inconclusive = small, poorly fitted or top-dose-only effect, or another doubt; inactive = no such curve, though single readings can be large; an effect the other way counts as inactive or inconclusive.

Columns and labels:
[1] = Primary qHTS for inhibitors of nuclear receptor binding SET domain protein 2 (NSD2) in an isogenic RCH-ACV NSD2 p.E1099K mutant (9B) (AID 1645876); also: nearly all actives have a fitted effect of over 70% in size; also: potency is read from the fitted curve at half-maximal effect
[2] = system: HEK293; test: Cytotoxic Profiling of Annotated Libraries Using Quantitative High-Throughput Screening (AID 1296008); conditions: Five cell lines viability, CellTiter-Glo ATP luminescence, 48-72 h; max response: hits give low values; also: nearly all actives have a fitted effect of over 60% in size; also: potency is read from the fitted curve at half-maximal effect; as to max response: % is scaled to controls: 0 for no effect and ±100 for the full control effect
Procedure, shortened: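 Cells exposed to compounds for 48 or 72 hr at 37 degrees Celsius. Viability read as ATP-coupled luminescence with CellTiter-Glo after 10 min at room temperature.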

[3] = system: PA-1; test: Primary qHTS to identify gynecologic anti-cancer compounds using libraries of approved drugs and bioactive compounds (AID 1345084); conditions: Gynecologic cancer cell panel viability, ATPlite luminescence, 48 h; series mostly up to 57.5 µM; also: nearly all actives have a fitted effect of over 55% in size; also: potency is read from the fitted curve at half-maximal effect; as to activity change, negative = cytotoxicity: % is scaled to controls: 0 for no effect and ±100 for the full control effect
Procedure, shortened: (§1)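 In this quantitative HTS, cell killing is estimated from loss of ATP-dependent luciferase light. Cells see five compound concentrations over a 48 h exposure.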

[4] = P-glycoprotein substrates identified in KB-8-5-11 adenocarcinoma cell line, qHTS therapeutic library screen (AID 1346987); also: % is scaled to controls: 0 for no effect and ±100 for the full control effect; nearly all actives have a fitted effect of over 65% in size
Procedure, shortened: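 KB-8-5-11, a colchicine-selected P-gp-overexpressing KB-3-1 subline, was grown without colchicine for the assay. Cells were seeded at 500 cells/well, dosed in concentration-response and incubated 72 h at 37 degree C, 5% CO2. Viability was read by CellTiter-Glo luminescence.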

[5] = target: Cytochrome P450 2C9 (Homo sapiens) (UniProt P11712); test: Cytochrome P450 family 2 subfamily C member 9 (CYP2C9) small molecule antagonists: luciferase biochemical (cell-free) qHTS assay (AID 1645842; active = well fitted curve in the direction sought with a large enough effect in the repeat runs; inconclusive = weak or mixed curves; inactive = no such curve, though single readings can be large; an effect the other way counts as inactive or inconclusive; also: potency is read from the fitted curve at half-maximal effect; nearly all actives have a fitted effect of over 55% in size)
UniProt P11712, sequence (P11712 whole entry, looked up): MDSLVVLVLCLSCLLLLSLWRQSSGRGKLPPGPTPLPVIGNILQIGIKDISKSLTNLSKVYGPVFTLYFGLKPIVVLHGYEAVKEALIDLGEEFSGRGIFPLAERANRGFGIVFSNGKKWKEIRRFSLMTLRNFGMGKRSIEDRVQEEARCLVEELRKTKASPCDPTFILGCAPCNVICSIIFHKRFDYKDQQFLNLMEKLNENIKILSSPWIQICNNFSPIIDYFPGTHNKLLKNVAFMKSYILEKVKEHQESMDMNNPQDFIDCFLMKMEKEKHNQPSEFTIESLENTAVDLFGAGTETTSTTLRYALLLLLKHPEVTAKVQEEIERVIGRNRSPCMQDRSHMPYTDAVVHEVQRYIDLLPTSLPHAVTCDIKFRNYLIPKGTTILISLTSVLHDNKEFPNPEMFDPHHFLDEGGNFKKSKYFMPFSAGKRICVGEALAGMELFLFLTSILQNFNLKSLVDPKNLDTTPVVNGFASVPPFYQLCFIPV
Procedure, shortened: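 Luminescence, after 20 min with luciferin detection reagent, reflected CYP2C9 turnover during a 1 h NADPH-driven reaction at 37C. Enzyme-substrate mix contained 0.4% bovine serum albumin and was preincubated with compound 10 min at room temperature.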

[6] = Primary qHTS for inhibitors of nuclear receptor binding SET domain protein 2 (NSD2) in an RCH-ACV wild type WT cells (2C) (AID 1645877); conditions: activity change, negative = cell killing: at 44.9 µM (top of the series) unless noted; also: nearly all actives have a fitted effect of over 70% in size; also: potency is read from the fitted curve at half-maximal effect; as to activity change, negative = cell killing: % is scaled to controls: 0 for no effect and ±100 for the full control effect
[7] = system: Zika virus NS2B-NS3 protease (linked construct); test: Primary screen NINDS Rhodamine qHTS for Zika virus inhibitors (AID 1347160); conditions: activity change, negative = inhibition: at 57.1 µM (top of the series) unless noted; also: potency is read from the fitted curve at half-maximal effect; nearly all actives have a fitted effect of over 55% in size
Procedure, shortened: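 Kinetic fluorescence (Ex 480 nm, Em 540 nm) over 15 min with 1.5 microM Rhodamine110 peptide and 25 nM linked protease.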

[8] = Confirmatory screen NINDS Rhodamine qHTS for Zika virus inhibitors (AID 1347161); also: potency is read from the fitted curve at half-maximal effect; nearly all actives have a fitted effect of over 60% in size
Procedure, shortened: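 Aprotinin served as in-plate control. Conditions: 25 nM linked NS2B-NS3, pH 8.0 Tris buffer, titrated compounds, 15 min preincubation and 15 min reaction with 1.5 microM Rhod110 substrate at room temperature.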

[9] = Primary fluorescence-based thiol-reactive (MSTI) qHTS assay for identification of artifact compounds. (AID 1845221);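 also: potency is read from the fitted curve at half-maximal effect; thiol-reactive compounds lower the probe fluorescence signal; nearly all actives have a fitted effect of over 65% in size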
Procedure, shortened: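 One-hour, room-temperature, dark incubation of compound with 4 uM MSTI in PBS (pH 7.4, 2% DMSO) precedes a fluorescence read at 525 nm excitation, 598 nm emission; Hill-equation fitting yields concentration-response values.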

[10] = system: SKOV3; test: Primary qHTS to identify gynecologic anti-cancer compounds using libraries of approved drugs and bioactive compounds (AID 1345084); conditions: Gynecologic cancer cell panel viability, ATPlite luminescence, 48 h; series mostly up to 57.5 µM; also: nearly all actives have a fitted effect of over 55% in size; also: potency is read from the fitted curve at half-maximal effect; as to activity change, negative = cytotoxicity: % is scaled to controls: 0 for no effect and ±100 for the full control effect
Procedure, shortened: as §1
Tags tell the direction and shape of the fitted curve.

C[C@@H]1CC[C@]2(C(=O)O[C@@H]3O[C@H](CO[C@@H]4O[C@H](CO)[C@@H](O[C@@H]5O[C@@H](C)[C@H](O)[C@@H](O)[C@H]5O)[C@H](O)[C@H]4O)[C@@H](O)[C@H](O)[C@H]3O)CC[C@]3(C)C(=CCC4[C@@]5(C)C[C@@H](O)[C@H](O)[C@@](C)(CO)C5CC[C@]43C)C2[C@H]1C (some centres undefined)
inactive: outcome [1] inactive [at 9.23 µM] | max response [2] -0.975% | activity change, negative = cytotoxicity [3] 6.43% [at 11.6 µM]

COc1ccc(CCO[C@@H]2O[C@H](CO[C@@H]3OC[C@H](O)[C@H](O)[C@H]3O)[C@@H](O)[C@H](O)[C@H]2O)cc1
inactive: Potency [4] | Potency [1] | max response [2] -0.354% | Potency [3]

C=CC(=O)N1CC(N2CCN(C(=O)CNc3cc(C4CC4)c(Cl)cc3O)CC2)C1
inconclusive: Potency [5] 21.3 µM [inhibitor, partial curve] | Potency [1] 18.3 µM [inhibitor, partial curve, poor fit] | Potency [6] 14.5 µM [inhibitor, partial curve] | Potency [2] 23.1 µM [inhibitor, partial curve, poor fit] | Potency [3] 4.47 µM [rising, full curve, poor fit]

CC(=O)c1c(C)cc(O)cc1O[C@@H]1O[C@H](CO)[C@@H](O)[C@H](O)[C@H]1O
inactive: Potency [6] | outcome [2] | Potency [3] | Potency [10]
inconclusive: Potency [7] 10 µM [inhibitor, partial curve] | Potency [8] 30.6 µM [inhibitor, partial curve] | Potency [9] 10.4 µM [inhibitor, partial curve]
